# Patent US20250064779A1, “COMPOSITIONS AND METHODS FOR THE TREATMENT OF DEPRESSION” (Janssen Pharmaceuticals, Inc., priority 2022, published 2025)
# Values joined by “and” are separate entries in the source; they are usually repeats but may differ in a detail not shown here. Equal values may be shown once.
# What was measured:
# Assay type in all cases: in vivo, human
# [1] = tested on: subjects with MDD who have had an inadequate response to SSRI/SNRI treatment; assay: HAM-A6 total score (anxiety), Example 1; settings: Treatment Week 6
# Text: (§1) The secondary objectives are: • i. To evaluate the efficacy of aticaprant compared to placebo when administered as adjunctive treatment in subjects with MDD partially responsive to SSRI/SNRI treatment in terms of reduction of symptoms of depression, as assessed by the change from baseline on the MADRS in both responders and non-responders during the placebo lead-in period. • ii. To investigate the overall safety and tolerability of treatment with adjunctive aticaprant in subjects with MDD when used in combination with a SSRI or SNRI. • iii. To investigate the effect of aticaprant versus placebo on depression related anhedonia as assessed by the SHAPS. • iv. To investigate the effect of aticaprant on symptoms of depression using the Clinical Global Impression-Severity (CGI-S), the patient reported Symptoms of Major Depressive Disorder Scale (SMDDS) and the self-assessment of treatment experience (SATE). • v. To investigate the effect of aticaprant on symptoms of anxiety using the HAM-A and on core symptoms of anxiety using the HAM-A6 subscale. • vi. To assess the plasma PK of aticaprant in subjects with MDD and explore its relationship with efficacy and safety parameters. […]
# [2] = tested on: subjects with MDD who have had an inadequate response to SSRI/SNRI treatment; assay: SATE (self-assessment of treatment experience), Example 1; settings: Treatment Week 6, aticaprant 10 mg
# Text: SATE is a one to three questionnaire administered when the subject is unable to complete other evaluations, i.e., away from the clinical setting such as at home. SATE is useful to evaluate improvement or deterioration of depressive symptoms of the subjects over a short period of time. […] See, Table C.
# • (i) Depression: Montgomery-Åsberg Depression Rating Scale (MADRS), Clinical Global Impression-Severity (CGI-S), Symptoms of Major Depressive Disorder Scale (SMDDS), and Self-assessment of treatment experience (SATE) • (ii) Anhedonia: Snaith-Hamilton Pleasure Scale (SHAPS) • (iii) Anxiety: Structured Interview Guide for the Hamilton Anxiety scale (SIGH-A) and HAM-A6 • (iv) Effects on Cognition: The Cognitive and Physical Functioning Questionnaire (CPFQ) • (v) Safety Assessments: Standard safety assessments including physical and neurological examination, vital signs, 12-lead ECG, clinical chemistry, hematology, and urinalysis was performed. Based on observations of GI complaints in previous studies, a panel including PGI, PGII, G17 and Hp IgG was added to the clinical laboratory test panel to test for stomach mucosa status. • (vi) Suicidal ideation: C-SSRS • (vii) Exploratory: CPFQ • (viii) Central sedating effects: Karolinska Sleepiness Scale • (ix) Sexual dysfunction: ASEX
# [3] = tested on: subjects with MDD who have had an inadequate response to SSRI/SNRI treatment; assay: SIGH-A score (anxiety), Example 1; settings: Treatment Week 6; aticaprant 10 mg; 59 subjects analyzed
# Text: as §1
# [4] = tested on: subjects with MDD who have had an inadequate response to SSRI/SNRI treatment; assay: ASEX sexual functioning, Example 1
# Text: As used herein, the term “decrease in sexual functioning” refers to reducing or lessening of one or more components of the human sex drive, i.e., sexual functioning. In some embodiments, the sexual functioning comprises one or more of sexual drive, sexual arousal, vaginal lubrication, erection, orgasm achievement, or orgasm satisfaction. In other embodiments, the sexual functioning comprises sexual drive. In further embodiments, the sexual functioning comprises vaginal lubrication satisfaction. In further embodiments, the sexual functioning comprises orgasm achievement. In yet other embodiments, the sexual functioning comprises orgasm satisfaction. Desirably, the patient's sexual functioning is assessed at the time of initial administration of the aticaprant. Thus, the patient's sexual functioning while taking aticaprant can be compared to the patient's sexual functioning before administration of aticaprant. Sexual functioning may be assessed by using standard scales and techniques such as the Arizona Sexual Experience Scale (ASEX). The ASEX is used to investigate whether aticaprant has a further positive or negative effect on sexual function. The ASEX is 5 item rating scale administered to patients that quantifies sexual drive, sexual arousal, vaginal lubrication or penile erection, ability to reach orgasm and satisfaction. Scores range from 5 to 30, and two different versions of the scale are available (males and females).
# Patients had their sexual functioning measured using a standard, well accepted rating scale: ASEX. See, Table 32.
# [5] = tested on: subjects with MDD who have had an inadequate response to SSRI/SNRI treatment; assay: Biomarker signature (3MM, DYN, 4MM) analysis of MADRS treatment effect, aticaprant (Example 4)
# [6] = tested on: subjects with MDD who have had an inadequate response to SSRI/SNRI treatment; assay: CGI-S, Example 1; settings: aticaprant 10 mg; 59 subjects analyzed
# Text: CGI-S is a scale that rates the severity of the subject's illness at the time of assessment, relative to the clinician's past experience with subjects who have the same diagnosis and improvement with treatment. CGI-S provides an overall clinician-determined summary measure of severity of subject's illness that considers all available information, including knowledge of subject's history, psychosocial circumstances, symptoms, behavior, and impact of symptoms on subject's ability to function. CGI-S evaluates severity of psychopathology on scale of 0 to 7. Subject is assessed on severity of mental illness at time of rating according to: 0=not assessed; 1=normal (not at all ill); 2=borderline mentally ill; 3=mildly ill; 4=moderately ill; 5=markedly ill; 6=severely ill; 7=among most extremely ill patients. […]
# [7] = DYN >δ1 or (DYN >δ2 and 3MM), 38-63% of patients
compound,measurement,setting,value
"Cc1cc(C)cc(C2CCCN2Cc2ccc(Oc3ccc(C(N)=O)cc3F)cc2)c1 (stereo not shown) [aticaprant, 3-fluoro-4-4-2-(3,5-dimethylphenyl)pyrrolidin-1-yl-methylphenoxybenzamide]",improvement in HAMA6 score vs. placebo,[1],greater improvement
same,"Change from Treatment Baseline in HAM-A6 Total Score, Arithmetic Mean (SD)","[1]; aticaprant 10 mg, 59 subjects analyzed",−2.73 ± 2.651 scores on a scale
same,SATE: Depression Worsened (Much worse),[2]; n = 0,0 subjects
same,SATE: Depression Worsened (Slightly worse),[2]; n = 0,0 subjects
same,SATE: Depression Worsened (Very much worse),[2]; n = 0,0 subjects
same,SATE: Depression Much improved,[2]; n = 21,6 subjects
same,SATE: Depression Slightly improved,[2]; n = 21,15 subjects
same,SATE: Depression Very Much Improved,[2]; n = 21,0 subjects
same,SATE: Overall Depression (Got worse),[2]; n = 30,0 subjects
same,SATE: Overall Depression (Improved),[2]; n = 30,21 subjects
same,SATE: Overall Depression (Not changed),[2]; n = 30,9 subjects
same,"Change from Treatment Baseline in SIGH-A Score, Arithmetic Mean (SD)",[3],−5.85 ± 5.369 scores on a scale
same,ASEX score: Absolute Change,"[4]; baseline to endpoint, n = 85",−1.47
same,ASEX score: Relative % Change,"[4]; baseline to endpoint, n = 85",−6.91%
same,ASEX score: Endpoint,"[4]; n = 85, lower score indicates improvement",19.79
same,sexual functioning (ASEX),[4]; patients receiving aticaprant,notable improvements
same,ASEX total score: mean change from treatment baseline (SD),"[4]; to week 6, lower score indicates improvement",−1.5 (4.02) points
same,Treatment effect in 3MM biomarker signature negative group,"[5]; 3MM negative, end of double-blind",1.59 MADRS points
same,effect size of treatment effect in 3MM signature positive group,"[5]; 3MM positive, one sided p=0.07",0.75
same,Treatment effect in 3MM biomarker signature positive group (placebo − treatment mean MADRS change),"[5]; 3MM: CRP >3 mg/L and (TNFα>4 pg/mL or sIL6R>25 ng/mL), 21% of MDD, end of double-blind",6.3 MADRS points and 6.29 MADRS points
same,"Signature advantage (TE SigPos − TE SigNeg), 3MM","[5]; 3MM, end of double-blind",4.7 MADRS points
same,"MADRS points difference at end DB relative to placebo, 4MM signature positive patients","[5]; 4MM positive, 63% of MDD",4.6 MADRS points
same,improvement of 4MM signature positive compared to signature negative counterpart,"[5]; 4MM, 63% of MDD",6 points
same,"Signature advantage, 4MM signatures",[5]; [7],> 5 point
same,"Treatment effect, 4MM signatures",[5]; [7],≥ 4.5 MADRS points
same,response in patients both 3MM positive and high dynorphin,"[5]; DYN >δ pg/mL and 3MM, FIG. 28B δ=11.5",marked improvement
same,"Signature advantage, high DYN or 3MM signature","[5]; DYN >δ pg/mL or 3MM, in more than 60% of patients",3-8 point
same,"Change from Treatment Baseline in CGI-S Total Score, Arithmetic Mean (SD)",[6],−0.92 ± 1.039 Scores on a scale
